2 compounds from PubChem BioAssay AID1963833 (Molecular Pharmacology Branch, DTP, NCI, 2024) can be followed below.

The test system of this assay is 883617-216-R-J1-PDC complex spheroid viability. Kind of assay: Anticancer human tumor 883617-216-R-J1-PDC patient-derived bladder carcinoma cell line growth inhibition [POLQ]. The conditions noted are these: stronger effect = lower value. The method, then:
Multicellular complex tumor spheroid response to Polymerase (POL) inhibitors (novobiocin, ART-558, RP6685) in combination with a variety of drugs and investigational agents in selected tumor cell lines
The POL inhibitors (novobiocin, ART-558, and RP6685) were evaluated both individually and in combination with standard of care and investigational anticancer small molecules within a complex spheroid model of solid tumors. . Complex spheroids include a stromal component modeled by human endothelial cells (HUVEC) and fibroblasts modeled by human mesenchymal stem cells (MSCs). The concentration ranges selected for each drug and investigational agent were based upon clinically achievable concentrations if the clinical Cmax of the agent was known.
Compounds. The drugs and investigational agents: novobiocin (NSC847541), ART-558 (NSC835418), RP-6685 (NSC848927), peposertib (NSC802822), ceralasertib (NSC780249), elimusertib (NSC800525), camonsertib (NSC841442), AZD-1390 (NSC803789), olaparib (NSC753686), talazoparib (NSC767125), rucaparib (NSC756644), sotorasib (NSC818433), MRTX-1133 (NSC836407), SN-38 (NSC673596), topotecan (NSC609699), epotoside (NSC141540), doxorubicin (NSC123127), gemcitabine (NSC613327), 5-fluorouracil (NSC19893), paclitaxel (NSC125973), vemurafenib (NSC761431), MSA-2 (NSC828583), SN-011 (NSC837082), adavosertib (NSC754352), prexasertib (NSC758257), carboplatin (NSC241240) and oxaliplatin (NSC266046), were obtained from the National Cancer Institute (NCI) Developmental Therapeutics Program Chemical Repository (21). The FDA-approved anticancer drug set is available from the Developmental Therapeutics Program at https://dtp.cancer.gov/organization/dscb/obtaining/. […] If the clinical Cmax for an agent had not been determined, the highest concentration tested was 10 microM, except for SN-38, which was tested at a high concentration of 1 microM. […]

The structures appear in SMILES notation. A number of entries come with more than one value. The list is limited to them. There may be further records. Results that share an entry are repeats in other runs, samples, wells, individuals or studies. Additions like (4×) stand for listed records that agree.
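Further: spheroids exposed to compounds for seven days before readout; 100% = DMSO vehicle control viability.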

`COC1C(OC(N)=O)C(O)C(Oc2ccc3c(O)c(NC(=O)c4ccc(O)c(CC=C(C)C)c4)c(=O)oc3c2C)OC1(C)C` (stereo not drawn): the viability, T/C reads like this: (compound alone 0.316 µM) 93.5, 98.6, 112, 96.9, 99.5, 114, 102, 100 (2×), 91.6, 97.6, 121, 99.3%; (compound alone 10 µM) 91.1, 105, 92.4, 116, 94, 89.3, 101, 86.8, 97.2, 94.5, 113, 106, 96.9%. With `Cc1cccc(N(C)C(=O)C2C(O)CCN2c2nc(C)cc(C(F)(F)F)c2C#N)c1` (stereo not drawn), the viability, T/C (compound alone 0.1 µM) was 110 (2×), 106, 95.5, 114, 98.8, 97.9, 104 (2×), 98.7, 93.9, 87.6, 87.5%.
